The source gives no read counts; variants with many changes may rest on few reads.

B1: LINE1-mini (parent)
chain: GGCAGAGCUCAACACAGCGUGGCAAAGUGGCUGUGGCUAGACUGCC

This data set covers variants of B1. The data set can be described thus: self-cleavage, relative activity (ratio to wild type); higher = more cleavage; in vitro, sequencing; the parent is a self-cleaving ribozyme.
As for C31U U38A C46U, the self-cleavage came to 0.02.
Consider C3A G7U G27U C46A, for which the self-cleavage turned out to be 0.12.
For A26G C31U A41G the value was 0.
For G17U A39C C46U the value was 0.32; for A6U G7A G30C U38C, 0.06.
For G1C C10A C15G C31G, the self-cleavage was found to be 0.02.
Consider C10A G17A G21A G40A U43C, for which the self-cleavage was 0.03.
For A14C A16U G17U A24C the value was 0.21; for G2U A12C A16C G29U G35C C46U, 0.
Take G17U G21U G29U U32G: the self-cleavage amounted to 0.04.
As to U20G G22U G30C G35C C45A, the self-cleavage is 0.06.
Regarding G7C G36A G44C, the self-cleavage was found to be 0.02.
In the case of U20C G27C G36C C37G, the self-cleavage came out at 0.01.
On to A6C G22C C31U, for which the self-cleavage is 0.23.
For C10U A25G G29C the value was 0.19.
As for C3G C15G G40U, the self-cleavage is 0.03.
As for C13U A14U C23A, the self-cleavage came to 0.12.
The figure for C13A G17U G19U is 0.1; for C18A G22C U32A G33U G40A it is 0.02; for C8G G17C G35U it is 0.11.
Consider A4C G7U C8U U9A A14G U28C G30C U32A, for which the self-cleavage was 0.15.
Take C8U A11G C18A G19U G33A U34C: the self-cleavage came to 0.02.
Turning to G7A U20A G22U C23U U32C, the self-cleavage was 0.08.
Regarding G7U C10G C37A, the self-cleavage stood at 0.
G2U U32G C37G G40U: the self-cleavage is 0.01.
The figure for U20G G30C C31A G40A is 0.04; for G1C A14U U38C it is 0.01; for A12G G19A G21A G36U it is 0.01.
The figure for C8U A11G G17C C18U U32A U38G is 0.01.
For A16U C31A G33A G40U the value was 0.01; for G1A C8A G29U, 1.16; for A6C C18A C46A, 0.13.
On to A4U G22U A41U, for which the self-cleavage is 0.52.
Regarding C8A G21A G36U C37A C45G C46G, the self-cleavage stood at 1.16.
On to G1A C15A G36U, for which the self-cleavage worked out at 0.07.
For G7A A12C G17A A26C U32C the value was 0.01; for A6U G22U G36A, 0.47; for G17C G19U A25C U34A U38A, 0.01.
On to C31U G33C A39U, for which the self-cleavage amounted to 0.05.
The figure for C18A A24G U32C is 0.02.
The figure for C3G A11C G30A is 0.06.
As to C8A C31G C37A, the self-cleavage was 0.02.
For the variant G17C G19C G40U, the self-cleavage came to 0.05.
For G17U G22A G40A C45A the value was 0.1.
The figure for A16C G33A G36A is 0.02; for G2A A11C U20C G29U G33A A39C it is 0.07.
The figure for A4U A16G G29U is 0.21.
For the variant A4C G5A G17U G36C U43G, the self-cleavage turned out to be 0.01.
The figure for C8G C13U A16C C23G A25G G40U is 0.03.
For C3A G17U G19C the value was 0.05; for A11C C13A G17U A24U, 0.01; for G2U G5U A11U G44A, 0.
For G17U C18G G36A the value was 0.03.
Consider G1C G2C C3U G30A G33C G35U G36C, for which the self-cleavage worked out at 0.16.
For G1A U34C C37A C45U, the self-cleavage came to 0.02.
For A6U A24G U38A C42U the value was 0.12; for A4C C10A U32A, 0.04; for U9C C15A G29A U32C C46G, 0.03.
For the variant G7C U9G G19A A25C, the self-cleavage is 0.29.
For U20G G35U G40C the value was 0.02; for A4U G21C G36U C37U, 0.07; for G2U C3G A6C C18A U20G G29C U32C U34C, 0.
With A11C C18A G19A A41U G44A, the self-cleavage worked out at 0.
The figure for G2C A12G C15A G30U is 0.02; for G5U G7C A12G G36U it is 0.01; for A4G C23U A41U it is 0.65.
Regarding G7C C13U A14U A25G G27A G44C, the self-cleavage amounted to 0.05.
For A4C C15U C18A G33A the value was 0.03; for C8A A14G G27U G33A A41U, 0.16.
The figure for A24C G35U U43A is 0.02; for G5U C8U A16C G22A it is 0.05; for A6U C13A G44C it is 0.02.
The figure for G2C G7A A16G C18G G44A is 0.09.
Turning to C10U C31A U38A C45U, the self-cleavage was determined as 0.03.
For G17A U20C G21C G22A C31A U43C C46A the value was 0.01; for C15A G17C C18A G27U G36C, 0.01; for C13A A14C C37G A41C C42A, 0.01.
For A41U C42G G44A the value was 0.3; for C8A A16C C18U C23U G29C, 0.1; for A16G G19A C31U G33C C37A A39U, 0.02.
For A16C C18U G33C U38G A39U C46U the value was 0.02; for A12U G19C G27C A41U, 0.02.
For A6U U20C A26G, the self-cleavage worked out at 0.44.
G1A C18U A24C: the self-cleavage turned out to be 0.62.
Take C10U U32G U38C C45A: the self-cleavage was 0.03.
For C23U A25U G29A the value was 0.83; for G7A C10G G44U C45U, 0.02; for G5C G19A G35A, 0.03.
With C23A C37A C46G, the self-cleavage is 0.24.
The figure for A6C G7U G21U is 0.01; for C3G A4C G17C C46A it is 0.19; for C10G C13A U20C A41C it is 0.
The figure for G5A A11G G29U C37A is 0.03; for G5A G7U C15A C37A it is 0.25; for U9A A12C U32C it is 0.05.
The figure for C8U A14G C31U U43C G44U is 0.06; for C15U G30A G36U U38A it is 0.17; for C3G A14U U32A it is 0.12.
As to C3A C8U C13G, the self-cleavage is 0.85.
The figure for U9C G40C U43C is 0.02; for C8U A24U A26G U28C G40C it is 0.27; for A12C G21U A25G G40C it is 0.01.
The figure for A6C U9A A25G G27A is 0.06; for U9A A11C A12U it is 0.04.
For C13U U32C U34G, the self-cleavage worked out at 0.05.
For C8U C10U G35U the value was 0.04; for A6C C23G G27U A39G A41C, 0.
The figure for C18U U20G G36U A41G G44U is 0.01; for C8A A14U A16C G17C A24G C45G it is 0.22.
As to G19C A24G G27C C37U, the self-cleavage came out at 0.01.
Regarding G7U A11U G22U U28A C31G, the self-cleavage was determined as 0.02.
The figure for G7C C8A U9G A14C G21U is 0.02.
The figure for C18G G22U U43A is 0.02.
The figure for A24U C31U G40A is 0.02; for G1U C13U C15U G17U C31A it is 0.01.
As to A6G G7A G40C, the self-cleavage came out at 0.12.
For G19U G21C A24G, the self-cleavage stood at 0.28.
The figure for C3A A24U G27C U38A is 1.71; for C8G C13G A39C it is 0.02; for U9A C15A C18U it is 0.05.
For A4G A12U G40C the value was 0.07.
Consider A11C G30A G35A, for which the self-cleavage was found to be 0.04.
For the variant C10A G17U G22U, the self-cleavage came to 0.04.
G2C C3U G5U C13A G17U G27U U34G: the self-cleavage worked out at 0.03.
The figure for G1A A6G G19A C23G A24U A25C A39G is 0.03; for G5A C18A G19U C46A it is 0.06.
The figure for A14U C18U A26U U32A G36A is 0; for G19C U20C G27A C37U it is 0.02; for G21C G22U A24G it is 2.96.
C37G U38A C42U: the self-cleavage was determined as 0.04.
The figure for G1C G2U C3A A12C is 0.02; for G2U C23A C37U C42G it is 0; for C10G A25U A39U it is 0.17.
The figure for A16G U20C C37A is 0.02; for G33U C37U A41C it is 0.23.
For G2C A12U A16U A26C C31G U38G the value was 0.01; for G5U A39U C42A, 0.87; for U9G A26U G27A, 0.04.
Take G1A C18A C23G A39U: the self-cleavage stood at 2.47.
The figure for A12G G19U C23U G35C is 0.02; for A4G C10U G21U G29U U38G A41U it is 0.02; for A4U A12C G21A it is 0.03.
The figure for C13G A14U U28A A39C C45G is 0.02; for G19A U32A G35U it is 0.06; for A6G A12G C13U U20G A26G G36C it is 0.
The figure for C3A G19U C37U is 0.55; for G2U A12C A25U A39C C46U it is 0.
For the variant C3A G5A U20G A26G G35U, the self-cleavage was 0.05.
The figure for G1C G2C C10G C46A is 0.06; for G7C A16G G21A C46A it is 0.
The figure for A16G A39U G40A C42G is 0.02; for G7U A12G C18U A25C G33U G35U it is 0.04.
As to C18A G35C U43G, the self-cleavage is 0.
For A11U C15A U20C A24U G27U the value was 0.01; for A12G C13G G29C C37A, 0.05; for G1U C13U C18A A24C, 0.05.
With C15G C23A G35A, the self-cleavage came to 0.05.
G5A A41U C42U G44C: the self-cleavage was determined as 0.02.
Regarding G7U C8A A11C A26G, the self-cleavage was 0.02.
On to A16U G30U C37A, for which the self-cleavage turned out to be 0.02.
For U38A G44A C46G, the self-cleavage was 0.07.
The figure for A14G G22U A39C is 0.14.
The figure for G7C A16U A25U G35A is 0.06.
For the variant A24U C42A G44A, the self-cleavage is 0.06.
Regarding G5U G29U U34A, the self-cleavage is 0.05.
Consider U20C G21A U38G, for which the self-cleavage stood at 0.01.
The figure for G1A C8U A24G is 1.34.
